Assay results: publication PMC10668032
Some of the results follow. At the low end of the ranking, values are background and their order means little.

molecular target: SIX1 homeodomain (reference allele) (UniProt Q15475); test: universal protein binding microarray; settings: Universal all-10-mer PBM (8x60K, AMADID 030236), 300 nM GST-tagged protein, Alexa Fluor 488 anti-GST; buffer, salt, pH and temperature not stated; high values mean tight binding; most listed sequences are background and not binding sites; double strand, one strand shown

Sequence | binding signal [E-score]
AATTTGCT | -0.402
GTAAAGCA | -0.143
CTGAGGGC | -0.355
CTGAACTA | -0.0976
CGAACAAC | -0.109
AGCTCAAG | -0.179
TGCTTCCA | -0.283
CGACCCCC | 0.055
ACTGTCGC | -0.207
CATTAATC | 0.172
AAGGACAT | 0.0427
CGGTCTAC | -0.00532
CGTGCGAC | -0.0591
GAGTTGGA | -0.0493
ATTCCTCC | 0.0737
CGTCATGA | 0.136
ACCCTCGG | 0.0367
TTCAAAAA | -0.115
AACTATCA | 0.126
AGTCGAAT | -0.105
CTGCCTTC | -0.22
CCCAACGG | -0.124
CGGAGAGA | 0.0698
GAGTATAC | 0.262
ACGGCTAG | -0.0762

Sequence | binding signal [E-score]
CCCTGCGG | 0.154
GTAAGAGA | -0.0676
GGCTGTAA | -0.116
AGAAGCCT | 0.0392
GTGGTAAC | -0.00979
ACCGTTGG | -0.0509
AATCCGAC | 0.189
AAACTGGT | 0.0866
AATCCACA | 0.104
ATTTGGCA | -0.17
GAGTCCAC | -0.102
GACTAACA | -0.222
CTCCTTTA | -0.162
GATAGCAC | 0.236
ACAAGGTC | -0.115
ACCCATAG | 0.0323
CACTCTGC | -0.0396
GATTTTTA | -0.0609
AGTAATAC | 0.255
AGCGCAAG | -0.12
AGACATAG | -0.0344
AAATCAAA | -0.172
ACCGTTAG | -0.0683
CGTCCGAG | -0.146
TAATGACA | 0.0663

Sequence | binding signal [E-score]
CAGTGCGG | -0.143
CTTAGATC | 0.158
ACATCTAC | 0.132
ATATCTGC | 0.346
GAGGCTGA | -0.0454
ATGCAACC | -0.0231
CACACCCC | 0.26
CCGCTTAC | -0.109
CATTTGAA | -0.136
CTTATATC | 0.292
CATATTTA | 0.125
CCCTGGTA | 0.114
ATCCGGTA | 0.318
CAGCTTCC | -0.171
GCGGTTAC | -0.0321
AGCTGCCT | -0.193
GATTCCTA | -0.0441
CAGATAAC | 0.191
ACCCAGCC | -0.153
GCTGTATA | 0.232
GGGGTACA | 0.143
AGGGCGGA | 0.0721
CTTCTACA | 0.0601
CTAGATTC | -0.0563
CGTACAAG | -0.113

Sequence | binding signal [E-score]
GCCTAACA | -0.104
AATTCTCA | -0.124
GGCTTTCA | 0.00887
GACCTTAA | -0.19
ACCTACTC | -0.112
CTCCTCTC | -0.0704
ACGTGTGA | -0.0277
CGCGCCCC | 0.0198
AAGTTAGC | -0.266
GGAACGGA | -0.0283
GGAGTAAA | 0.146
TGGCTAAA | -0.206
GACAGGGA | 0.0206
GGTGAGAC | 0.153
GAGTTCGC | -0.221
ACTATAAG | -0.0155
CAATCATC | -0.095
CATGTCTC | 0.151
TATAACCA | 0.0944
CGCGCTAG | -0.0744
CTTTGTCC | -0.242
GGGTAGCA | 0.0391
AAGAAGGT | -0.0425
CACACTAC | 0.0422
AGAAACGC | -0.138

Sequence | binding signal [E-score]
ATCTTTAC | -0.0176
TAGGAAGA | -0.0973
CTAGGTAC | -0.175
AATAATTA | -0.115
AAACTACC | -0.212
TCCTGAGA | 0.0926
GCCCCTTA | -0.0427
AGTTTCCC | -0.171
ACGATTTA | 0.0068
ATCACCGG | 0.291
ATTTAAAG | -0.0093
GGAGACCA | -0.0281
AGTACGTG | -0.115
ACTCCAAT | -0.0381
CGGTACGA | 0.125
CAAATCGA | -0.164
ACACTAAG | -0.0747
AGCGCAGA | -0.116
AGAAGTTG | -0.218
AGAAATCG | -0.183
ACTGCTCC | -0.254
ATGTGAAA | -0.162
AAGATTCG | -0.0816
ACCAGTAG | 0.00605
ATCCAAGG | 0.173

Sequence | binding signal [E-score]
CACTCATG | 0.187
GAACAAGA | 0.0989
ATCTCTAA | 0.0729
AAGCGATG | -0.17
GATGTACA | -0.0623
AAACCTCT | -0.00703
AACGACGG | -0.151
AAGAGGTG | 0.0276
GGGATCGA | 0.385
AGGTTTGA | -0.158
AGCAGGGG | -0.0745
AAACCGCG | -0.132
ACTCATAA | 0.0882
GATCGTAC | 0.274
ACCCATGC | 0.00469
CACCGATG | 0.215
CCTTACCG | -0.171
AAGAGCCC | -0.353
CGCGGGCA | 0.222
CAAGGTTC | -0.0909
GACAAATC | -0.076
CGACGCCC | -0.098
CCGCGACA | 0.101
TCTCGAGA | 0.112
CGCGTGCA | -0.237

Sequence | binding signal [E-score]
AATAGAAT | 0.0115
GCTCCGAA | 0.0245
CCGAGAGA | 0.0968
AAGCTATC | 0.277
AGACAGCG | -0.293
GGACGCCA | -0.176
CCACAGCG | -0.0271
AATTGGCC | -0.28
CGCGAGAG | -0.0604
ACCCAACT | -0.0908
TGCCCGCA | -0.167
ACTAACCA | -0.0597
CAAGCTCC | -0.218
ATCCTCAC | 0.234
ACTCTACA | 0.0687
ATCGCTGC | 0.132
CCCCAGAA | 0.093
CCTTCAGA | -0.106
ACATCTGA | 0.0568
CTAACCAG | -0.162
GCCAGGGA | 0.0328
CGGCAACA | -0.0521
